From the RNAGym collection of RNA variant scans (doi:10.7554/elife.90254)
Read counts are not given, so values of variants with three or more changes are uncertain.

B1: LINE1-full (parent)
chain: UACGUAGGUGGUUUUCCCCUGAUAGUGCUAAGGGGGCCUGGAAGUUUGGACUGGGCAGAGCUCAACACAGCGUGGCAAAGUGGCUGUGGCUAGACUGCCUCUCUGGAUUCCUCGUCACUCAGCAGGGCAUCUCUGAGAGAAAUGCC

Variants of: B1
Assay: self-cleavage, relative activity (ratio to wild type); higher = more cleavage; in vitro, sequencing; the parent is a self-cleaving ribozyme

Variant	self-cleavage
G4A U12A A94G U115A	0.21
G25A A57G G93A U119C	0.04
G8A U9C A43G U85A C131A	0.33
U5C U130A A141G	2.92
U62C U73C A124U	0.08
U23C C71U A107U A121G	0.93
G34A U47C U62A	0.01
U14A U23A U108C C113U A141G	1.94
U12C A57G A77U A142U	0.48
C51U G80U A117G	1.04
G40A U85C U130A	0.11
G36A U39A U85G A124G U132C	0.02
G54A G126U A129G	1.22
C56U U96A U102C	0.04
U5A A42G U52A	1.07
A59G A77G U100C C146U	0
A30U U45C U109A A141G U143C	1.78
A79G U81A A124U	2.13
A67G U96C A124U	0
A69U G72A U132C	0.06
U1C U5C A121G	2.02

Variant	self-cleavage
U26C G41A C61G U85C U119A	0
U20C A22G U29C G54U C95U	0.22
A43G A59U A77G A141G	1.21
U73C A78G U112C	0
U9A A42U U115C	1.33
U12C U20A G48U U96C	0.19
A64G U81C U132A	0.31
A43G A67G U115C	1.84
U20A U29C A57U	0.24
U23C A24C A64G A65G	0
U46C A65G U108C	0
A43G U85C U143A	0.14
G32A A65G A69G A140G A141G	0.14
A30G A65G U130C A138G	0
A64G U85A G97A	0.05
U52A A67G C84A U100C U143A	0
U15A U46C A141G	1.15
U26C A69G U109C	0
U5C A67G C131U	1.13
A94G U102C G144A	0.24
A77G A79G U96C C98A U115A G127A	0.04

Variant	self-cleavage
G86A A121G A136U	0.07
U12G U108A U134A	0.93
G55A U85A A94G C101U A107G C120U	0.01
U26C A94U A138G	0
G72A U87C U134C	0
A24C G82A A142G	1.66
U9C U62C U115C	0.35
U13C U20C U132C	0.79
U47G G54A U73C	0.17
U13C U47A U62A U104C A124G	0.12
U9C A121G A136G	2.24
C19U A69G U119A U134C	0.2
C16A A42G U81C U132C A142G	0
U14C U23C A78G A136G	2.8
U13C U29A U46C U73C G83A A124G	2.4
A79G U81A A94G U100C G114A A138G	0
U12C A64C A69G A79G	0
U14C C110U U134C A136U	1.1
G7C U39C U132C	1.77
U5G A67G G126U	0.71
U5C U104C U115C A117U U132C U143C	0

Variant	self-cleavage
C16U A78U U100C A140C	2.19
U15A G54A U104A	0.11
U9C U14A C38U U45A U62C U112C	0.13
A6G U102A U109A	0.53
A78U U87C A121U	0.35
U109C A129G A136G	1.24
U14C A64G U73A U134A	0.48
G75A A79G U104A	0.77
U12G U14C U20C A129U	0.26
A2G A42G U62G A140G	0
A22U U26C G58U U115C A136U A141C	0
U9C A79G U85C U104C A140U	0
G4A C84A A141G	0.22
A50G A65G A69U U115C	0
A57G A67U U87A	0.52
U26C C66U U81G	0.05
U26C U45C G75A	1.65
C19U A67G U102C	1.25
A31G U39C U81A	1.31
U13A A30G G75C	0.53
U20C U47A A57G	0.5
